“And” between values parts separate entries of the source, which are not always exact repeats. Identical values can stand only once. The whole screen tested about 410,000 compounds, of which about 6,400 (1.6%) were called active. Inconclusive results, whose numbers are uncertain, are shown with a selection of clear calls. Calls come from the whole dose curve; as a rule, active = well fitted inhibition curve with a large enough effect; inconclusive = small, poorly fitted or top-dose-only effect; inactive = no such curve, though single readings can be large or run the other way. Potencies beside an inconclusive call are fits to weak or partial responses and may not hold up.
Target: Glucagon-like peptide 1 receptor (Homo sapiens) (UniProt P43220)
Test: qHTS of GLP-1 Receptor Inverse Agonists (Inhibition Mode); note: nearly all actives have a fitted effect of over 55% in size
Conditions: HEK293 GLP-1R CRE-luciferase, luminescence, 24 h, GLP-1R form is constitutively active; activity change, negative = inhibition: at 38.3 µM (top of the series) unless noted
Method in brief: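 Luminescence readout: a drop in cAMP-driven luciferase signal flags inverse agonism at a constitutively active GLP-1R stably expressed in HEK293. Compound exposure lasted 24 hr at 37 deg C, 5% CO2.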
% is set by controls: 0 for no effect and ±100 for the full control effect; potency is the fitted concentration of half-maximal effect; tags give direction and shape of the fitted curve.

Chain of UniProt P43220 (P43220 whole entry, looked up): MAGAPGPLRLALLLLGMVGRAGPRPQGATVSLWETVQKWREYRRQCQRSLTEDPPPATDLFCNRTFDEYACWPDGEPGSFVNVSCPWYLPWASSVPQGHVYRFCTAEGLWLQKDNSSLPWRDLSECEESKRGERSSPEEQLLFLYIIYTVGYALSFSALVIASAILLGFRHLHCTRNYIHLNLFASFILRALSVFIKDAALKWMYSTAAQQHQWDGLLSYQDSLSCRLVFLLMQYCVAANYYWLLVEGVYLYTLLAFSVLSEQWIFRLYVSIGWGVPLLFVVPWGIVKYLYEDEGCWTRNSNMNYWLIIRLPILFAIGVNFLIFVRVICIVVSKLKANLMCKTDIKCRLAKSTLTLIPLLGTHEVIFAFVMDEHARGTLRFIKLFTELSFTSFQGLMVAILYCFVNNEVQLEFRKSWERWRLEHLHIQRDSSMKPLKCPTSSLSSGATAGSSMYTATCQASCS

Potency, inconclusive:
CCOc1ncccc1C(=O)OCC(=O)Nc1cc(S(=O)(=O)N2CCCCC2)ccc1Cl 28.2 µM [inhibitor, single point]
Cc1onc(-c2ccccc2)c1C(=O)N=C(N)c1ccc(Cl)cc1 3.16 µM [inhibitor, full curve, poor fit]
COc1ccccc1NC(=O)OC(C)c1ccc(Cl)cc1 (stereo not given) 8.91 µM [inhibitor, partial curve, poor fit]
COc1ccc(-n2cc3c(-c4cccc(Br)c4)nnc(C)c3n2)cc1 28.2 µM [inhibitor, single point]
COc1ccc(CNc2nc(-c3ccccc3)nc3ccccc23)cc1OC 12.6 µM [inhibitor, partial curve, poor fit]
C=CCn1c(SCc2cc(C(C)=O)ccc2OCC)nc2ccccc2c1=O 0.355 µM [inhibitor, full curve, poor fit]
Cc1ccc(NC(=O)CS(=O)(=O)c2c[nH]c3ccccc23)c(C)c1 8.91 µM [inhibitor, partial curve, poor fit]
O=C(Nc1cccc(C(F)(F)F)c1)Nc1nnc([C@@H]2C[C@H](O)[C@@H](CO)O2)s1 12.6 µM [inhibitor, single point]
COCOCCn1cc(CN2CCS(=O)(=O)N(Cc3ccc(-c4ccc(Cl)cc4)cc3)C(C)C2=O)nn1 (stereo not given) 11.2 µM [inhibitor, single point]
CC(=O)c1ccc(OCCCC(=O)Nc2cccc(S(=O)(=O)N3CCCCC3)c2)cc1 8.91 µM [inhibitor, partial curve]
Cc1ccccc1-n1c(SCC(=O)c2ccccc2)nnc1-c1ccc(F)cc1 11.2 µM [inhibitor, single point]
Cc1[nH]c2c(C(=O)N3CCCC(CCC(=O)NCc4ccccc4F)C3)cccc2c1C (stereo not given) 14.1 µM [inhibitor, single point]
O=c1c2ccccc2nc(/C=C/c2c[nH]c3ccccc23)n1-c1ccc([N+](=O)[O-])cc1 0.562 µM [inhibitor, full curve]
CN(Cc1ccc(OC(F)F)cc1)C(=O)C1CCN(S(=O)(=O)c2ccc3c(c2)OCCO3)CC1 12.6 µM [inhibitor, single point]
CCN(CCCNC(=O)CN1N=C(c2ccccc2)CCC1=O)c1cccc(C)c1 31.6 µM [inhibitor, single point]
Cc1cc(C(=O)CCC(=O)N(C)CC(=O)Nc2ccc(OC(F)(F)F)cc2)c(C)s1 12.6 µM [inhibitor, single point]
CCCCCOc1ccc(Br)cc1CSC(=N)N 28.2 µM [inhibitor, partial curve, poor fit]
O=S(N1CCCCCC1)C12CC3CC(CC(C3)C1)C2 (stereo not given) 7.08 µM [inhibitor, partial curve, poor fit]
S=C(NCc1ccccc1)NCc1ccc(Cl)cc1 11.2 µM [inhibitor, single point]
COc1cccc(NC(=O)c2ccc3c(c2)OCCO3)c1 6.31 µM [inhibitor, partial curve, poor fit]
O=C(C1CCCN(Cc2ccc(Br)cc2)C1)N1CCCCC1 (stereo not given) 10 µM [inhibitor, partial curve, poor fit]
C/C(=N/NC(=O)COc1cc(C)ccc1C(C)C)C(=O)O 2.51 µM [inhibitor, full curve, poor fit]
COc1cccc(NC(=O)c2ccc3c(c2)CCCC3)c1 28.2 µM [inhibitor, single point]
COc1cccc(CC(=O)Nc2c(C(=O)N3CCN(c4ccccc4)CC3)oc3ccccc23)c1 22.4 µM [inhibitor, single point]
Cc1ccccc1SCC(=O)NNC(=O)c1ccccc1O 31.6 µM [inhibitor, single point]
COc1ccc(C2C(C(=O)N3CCN(c4ccccn4)CC3)CC(=O)N2c2ccc(OC)cc2)cc1 (stereo not given) 28.2 µM [inhibitor, single point]
COc1ccc(C(=O)N(Cc2ccco2)Cc2ccccc2F)cc1Cl 7.08 µM [inhibitor, partial curve, poor fit]
Cc1ccc(Cc2c(C3CCCCC3)nc3ccc(Br)cn23)cc1 12.6 µM [inhibitor, partial curve, poor fit]
CC(NC(=O)C1CCN(Cc2ccc(Oc3ccccc3)cc2)CC1)c1cccc2ccccc12 (stereo not given) 28.2 µM [inhibitor, single point]
Brc1ccccc1CN1CCC(Cc2ccccc2)CC1 10 µM [inhibitor, partial curve, poor fit]
COc1ccc(NC(=O)c2ccc(COc3ccccc3Br)o2)c(OC)c1 10 µM [inhibitor, partial curve, poor fit]
O=C(NCC(c1ccco1)S(=O)(=O)c1ccc(Cl)cc1)c1ccc(C(F)(F)F)cc1 (stereo not given) 31.6 µM [inhibitor, partial curve, poor fit]
CC12CCC(C(=O)Nc3ccc(Cl)cc3)([C@H](Br)C1=O)C2(C)C (stereo not given in full) 3.16 µM [inhibitor, partial curve, poor fit]
OCCOCCn1c(CCNc2nc(-c3ccc(F)cc3)cs2)nc2cc(C(F)(F)F)ccc21 10 µM [inhibitor, single point]
CCN1CCN(Cc2ccc(NC(=O)c3cc(NC(=O)c4cc5cccc(OC)c5o4)cc(OC)c3)cc2C(F)(F)F)CC1 10 µM [inhibitor, single point] and 10 µM [inhibitor, partial curve, poor fit]
COc1ccc(CCNC(=O)c2ccc3nc(-c4ccco4)c(-c4ccco4)nc3c2)cc1OC 28.2 µM [inhibitor, single point]
Cc1ccc(S(=O)(=O)c2ncccc2[N+](=O)[O-])cc1 28.2 µM [inhibitor, single point]
CCCCC1(C)NC(=O)N(CC(=O)Nc2ccc(Cl)cc2C)C1=O (stereo not given) 10 µM [inhibitor, single point]
CCc1ccc(NC(=O)C2CCN(S(=O)(=O)c3ccc4c(c3)CC(C)N4C(C)=O)CC2)cc1 (stereo not given) 12.6 µM [inhibitor, single point]
CC(NCCC(c1ccccc1)c1ccccc1)c1ccccc1 (stereo not given) 25.1 µM [inhibitor, single point]
COc1ccc(CN2CCc3c([nH]c4ccccc34)C2)c(OC)c1C 11.2 µM [inhibitor, partial curve, poor fit]
CCN(CC(=O)Nc1ccc2c(c1)OCCO2)C(=O)/C=C/c1cc(Br)ccc1OC 28.2 µM [inhibitor, single point]
O=S(=O)(Nc1ccc(-c2ccccc2)cc1)c1ccccc1 11.2 µM [inhibitor, single point]
O=C(Nc1ccc(Cl)cc1C(=O)NCCN1CCOCC1)c1ccc(Cl)cc1Cl 12.6 µM [inhibitor, single point]
Cc1cc(C)c(S(=O)(=O)N(CC(=O)N2CCCC2)C2CCCCC2)c(C)c1 11.2 µM [inhibitor, partial curve]
CCN(c1ccccc1)c1ncnc2c1cnn2-c1ccc(OC)cc1 3.16 µM [inhibitor, full curve]
C=CCSc1nsc(NC(=O)Nc2ccc(F)cc2)n1 1.78 µM [inhibitor, full curve, poor fit]
CC(C)(C)C(=O)NC(=S)Nc1ccc(Cc2ccncc2)cc1 10 µM [inhibitor, partial curve, poor fit]
COc1ccc(-c2nc(NC(=O)Cn3ccc(C(F)(F)F)n3)sc2C)cc1 10 µM [inhibitor, partial curve, poor fit]
CC(C)C[C@H](NC(=O)c1nc[nH]c1C(=O)NCc1ccc(CNC(=O)OC(C)(C)C)cc1)C(=O)OCc1ccccc1 28.2 µM [inhibitor, single point]

Potency, inactive:
O=S(=O)(Nc1ccc2c(c1)nc1n2CCN(Cc2ccccc2)C1)c1ccc(Cl)cc1
CC(C)c1ccc(NC(=S)NC2CCN(Cc3ccccc3)CC2)cc1
CC(C)[C@H]1CN=C2N(C[C@H](C)NC(=O)CCC3CCCCC3)[C@H](Cc3ccc(O)cc3)CN21
CCC(C)n1c(=O)c2sccc2n2c(CCCC(=O)Nc3ccc(F)cc3)nnc12 (stereo not given)
C=CCn1c(-c2cccc(OC)c2)n[nH]c1=S
CC(NC(=O)C1CCCC1)C1CC2CCC1C2 (stereo not given)
O=C(CCC(=O)N1CCOc2ccccc21)NCc1cccs1
CC(C)S(=O)(=O)C1=NSC2=NC(=O)/C(=C\c3ccc(-c4ccccc4)o3)C(=N)N21
CCOC(=O)c1ccc(NC(=O)c2noc3c2CCCC3)cc1

Activity change, negative = inhibition, inconclusive:
CC(C)Cn1c(=O)c2c(nc3n2CCCN3Cc2ccccc2)n(C)c1=O -59% [inhibitor]
